Results reported in the supplement of paper PMC8728848.
Some of the results follow.

Experiments:
Experiment in all cases: glycan array binding signal (z-score within array); higher = stronger binding
Settings in all cases: glycan notation: IUPAC condensed, linker removed; mutation: E347A
[1] = target: Fuc(a1-2)Gal
Summary of the method: (§1)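 Glycan array data came from 3228 arrays in the Consortium for Functional Glycomics database, and only arrays with an available protein sequence were kept. Glycan names were put into IUPAC-condensed notation, and columns mapping to the same glycan were averaged. The binding signal is a within-array Z-score, averaged across arrays of one protein sequence run at different concentrations or buffers and across linkers. A negative Z-score can be read as non-binding.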

[2] = target: Fuc(a1-2)Gal(b1-3)GalNAc
Summary of the method: as §1

[3] = target: Fuc(a1-2)Gal(b1-3)GalNAc(b1-3)Gal
Summary of the method: as §1

[4] = target: Fuc(a1-2)Gal(b1-3)GalNAc(b1-3)Gal(a1-4)Gal(b1-4)Glc
Summary of the method: as §1

[5] = target: Fuc(a1-2)Gal(b1-3)GalNAc(b1-4)[Neu5Ac(a2-3)]Gal(b1-4)Glc
Summary of the method: as §1

[6] = target: Fuc(a1-2)Gal(b1-3)GlcNAc
Summary of the method: as §1

[7] = target: Fuc(a1-2)Gal(b1-3)GlcNAc(b1-3)Gal(b1-4)Glc
Summary of the method: as §1

[8] = target: Fuc(a1-2)Gal(b1-3)[Fuc(a1-4)]GlcNAc
Summary of the method: as §1

[9] = target: Fuc(a1-2)Gal(b1-4)Glc
Summary of the method: as §1

[10] = target: Fuc(a1-2)Gal(b1-4)Glc6S
Summary of the method: as §1

[11] = target: Fuc(a1-2)Gal(b1-4)GlcNAc
Summary of the method: as §1

[12] = target: Fuc(a1-2)Gal(b1-4)GlcNAc(b1-3)Gal(b1-4)GlcNAc
Summary of the method: as §1

[13] = target: Fuc(a1-2)Gal(b1-4)GlcNAc(b1-3)Gal(b1-4)GlcNAc(b1-3)Gal(b1-4)GlcNAc
Summary of the method: as §1

[14] = target: Fuc(a1-2)Gal(b1-4)GlcNAc6S
Summary of the method: as §1

[15] = target: Fuc(a1-2)Gal(b1-4)[Fuc(a1-3)]GlcNAc
Summary of the method: as §1

[16] = target: Fuc(a1-2)Gal(b1-4)[Fuc(a1-3)]GlcNAc(b1-3)Gal(b1-4)[Fuc(a1-3)]GlcNAc
Summary of the method: as §1

[17] = target: Fuc(a1-2)Gal(b1-4)[Fuc(a1-3)]GlcNAc(b1-3)Gal(b1-4)[Fuc(a1-3)]GlcNAc(b1-3)Gal(b1-4)[Fuc(a1-3)]GlcNAc
Summary of the method: as §1

[18] = target: Fuc(a1-2)Gal6S(b1-4)Glc
Summary of the method: as §1

[19] = target: Fuc(a1-2)Gal6S(b1-4)Glc6S
Summary of the method: as §1

[20] = target: Fuc(a1-2)Gal6S(b1-4)GlcNAc
Summary of the method: as §1

[21] = target: Fuc(a1-2)[Gal(a1-3)]Gal
Summary of the method: as §1

[22] = target: Fuc(a1-2)[Gal(a1-3)]Gal(b1-3)GlcNAc
Summary of the method: as §1

[23] = target: Fuc(a1-2)[Gal(a1-3)]Gal(b1-4)Glc
Summary of the method: as §1

[24] = target: Fuc(a1-2)[Gal(a1-3)]Gal(b1-4)GlcNAc
Summary of the method: as §1

[25] = target: Fuc(a1-2)[Gal(a1-3)]Gal(b1-4)[Fuc(a1-3)]GlcNAc
Summary of the method: as §1

[26] = target: Fuc(a1-2)[Gal(a1-4)]Gal(b1-4)GlcNAc
Summary of the method: as §1

[27] = target: Fuc(a1-2)[GalNAc(a1-3)]Gal
Summary of the method: as §1

[28] = target: Fuc(a1-2)[GalNAc(a1-3)]Gal(b1-3)GlcNAc
Summary of the method: as §1

[29] = target: Fuc(a1-2)[GalNAc(a1-3)]Gal(b1-4)Glc
Summary of the method: as §1

[30] = target: Fuc(a1-2)[GalNAc(a1-3)]Gal(b1-4)GlcNAc
Summary of the method: as §1

[31] = target: Fuc(a1-2)[GalNAc(a1-3)]Gal(b1-4)[Fuc(a1-3)]GlcNAc
Summary of the method: as §1

[32] = target: Fuc(a1-2)[GalNAc(a1-4)]Gal(b1-4)GlcNAc
Summary of the method: as §1

[33] = target: Fuc(a1-2)[GalNAc(b1-3)]Gal
Summary of the method: as §1

[34] = target: Fuc(a1-3)GlcNAc
Summary of the method: as §1

[35] = target: Fuc(a1-3)[Gal(b1-4)]Glc6S
Summary of the method: as §1

[36] = target: Fuc(a1-3)[Gal(b1-4)]GlcNAc
Summary of the method: as §1

[37] = target: Fuc(a1-3)[Gal(b1-4)]GlcNAc(b1-2)Man(a1-3)[Fuc(a1-3)[Gal(b1-4)]GlcNAc(b1-2)Man(a1-6)]Man(b1-4)GlcNAc(b1-4)GlcNAc
Summary of the method: as §1

[38] = target: Fuc(a1-3)[Gal(b1-4)]GlcNAc(b1-2)Man(a1-6)[Gal(b1-4)GlcNAc(b1-2)Man(a1-3)]Man(b1-4)GlcNAc(b1-4)GlcNAc
Summary of the method: as §1

[39] = target: Fuc(a1-3)[Gal(b1-4)]GlcNAc(b1-3)Gal(b1-3)[Fuc(a1-4)]GlcNAc
Summary of the method: as §1

[40] = target: Fuc(a1-3)[Gal(b1-4)]GlcNAc(b1-4)Gal(b1-4)[Fuc(a1-3)]GlcNAc
Summary of the method: as §1

[41] = target: Fuc(a1-3)[Gal(b1-4)]GlcNAc(b1-4)Gal(b1-4)[Fuc(a1-3)]GlcNAc(b1-4)Gal(b1-4)[Fuc(a1-3)]GlcNAc
Summary of the method: as §1

[42] = target: Fuc(a1-3)[Gal(b1-4)]GlcNAc6S
Summary of the method: as §1

[43] = target: Fuc(a1-3)[Gal3S(b1-4)]Glc6S
Summary of the method: as §1

[44] = target: Fuc(a1-3)[Gal3S(b1-4)]GlcNAc
Summary of the method: as §1

[45] = target: Fuc(a1-3)[Gal3S(b1-4)]GlcNAc6S
Summary of the method: as §1

[46] = target: Fuc(a1-3)[GalNAc(b1-4)]GlcNAc
Summary of the method: as §1

[47] = target: Fuc(a1-4)GlcNAc
Summary of the method: as §1

[48] = target: Fuc(b1-3)GlcNAc
Summary of the method: as §1

[49] = target: Gal(a1-2)Gal
Summary of the method: as §1

[50] = target: Gal(a1-3)Gal
Summary of the method: as §1

[51] = target: Gal(a1-3)Gal(b1-3)GlcNAc
Summary of the method: as §1

[52] = target: Gal(a1-3)Gal(b1-4)Glc
Summary of the method: as §1

[53] = target: Gal(a1-3)Gal(b1-4)GlcNAc
Summary of the method: as §1

[54] = target: Gal(a1-3)Gal(b1-4)[Fuc(a1-3)]GlcNAc
Summary of the method: as §1

[55] = target: Gal(a1-3)GalNAc
Summary of the method: as §1

[56] = target: Gal(a1-3)[Gal(a1-4)]Gal(b1-4)GlcNAc
Summary of the method: as §1

[57] = target: Gal(a1-4)Gal(b1-4)Glc
Summary of the method: as §1

[58] = target: Gal(a1-4)Gal(b1-4)GlcNAc
Summary of the method: as §1

[59] = target: Gal(a1-4)GlcNAc
Summary of the method: as §1

[60] = target: Gal(a1-6)Glc
Summary of the method: as §1

B1: Surfactant Protein D (Human); Neck + Carbohydrate Recognition Domain (NCRD) (Homo sapiens) (protein)
chain: MLLFLLSALVLLTQPLGYLEAEMKTYSHRTMPSACTLVMCSSVESGLPGRDRDGREGPRGEKGDPGLPGAAGQAGMPGQAGPVGPKGDNGSVGEPGPKGDTGPSGPPGPPGVPGPAGREGALGKQGNIGPQGKPGPKGEAGPKGEVGAPGMQGSAGARGLAGPKGERGVPGERGVPGNTGAAGSAGAMGPQGSPGARGPPGLKGDKGIPGDKGAKGESGLPDVASLRQQVEALQGQVQHLQAAFSQYKKVELFPNGQSVGEKIFKTAQFVKPFTEAQLLCTQAGGQLASPRSAAENAALQQLVVAKNEAAFLSMTDSKTEGKFTYPTGESLVYSNWAPGEPNDDGGSADCVEIFTNGKWNDRACGAKRLVVCEF
[1]
  glycan array binding signal (z-score): -0.186
[2]
  glycan array binding signal (z-score): -0.187
[3]
  glycan array binding signal (z-score): -0.306
[4]
  glycan array binding signal (z-score): -0.23
[5]
  glycan array binding signal (z-score): -0.102
[6]
  glycan array binding signal (z-score): -0.427
[7]
  glycan array binding signal (z-score): -0.459
[8]
  glycan array binding signal (z-score): -0.222
[9]
  glycan array binding signal (z-score): -0.456
[10]
  glycan array binding signal (z-score): -0.298
[11]
  glycan array binding signal (z-score): -0.224
[12]
  glycan array binding signal (z-score): -0.078
[13]
  glycan array binding signal (z-score): -0.055
[14]
  glycan array binding signal (z-score): 0.153
[15]
  glycan array binding signal (z-score): -0.389
[16]
  glycan array binding signal (z-score): -0.185
[17]
  glycan array binding signal (z-score): -0.128
[18]
  glycan array binding signal (z-score): 0.173
[19]
  glycan array binding signal (z-score): 0.34
[20]
  glycan array binding signal (z-score): 0.162
[21]
  glycan array binding signal (z-score): -0.261
[22]
  glycan array binding signal (z-score): -0.243
[23]
  glycan array binding signal (z-score): -0.168
[24]
  glycan array binding signal (z-score): -0.076
[25]
  glycan array binding signal (z-score): -0.107
[26]
  glycan array binding signal (z-score): -0.321
[27]
  glycan array binding signal (z-score): -0.056
[28]
  glycan array binding signal (z-score): -0.299
[29]
  glycan array binding signal (z-score): -0.269
[30]
  glycan array binding signal (z-score): -0.183
[31]
  glycan array binding signal (z-score): -0.282
[32]
  glycan array binding signal (z-score): -0.222
[33]
  glycan array binding signal (z-score): -0.115
[34]
  glycan array binding signal (z-score): -0.445
[35]
  glycan array binding signal (z-score): 0.176
[36]
  glycan array binding signal (z-score): -0.091
[37]
  glycan array binding signal (z-score): -0.15
[38]
  glycan array binding signal (z-score): -0.383
[39]
  glycan array binding signal (z-score): -0.11
[40]
  glycan array binding signal (z-score): -0.116
[41]
  glycan array binding signal (z-score): -0.239
[42]
  glycan array binding signal (z-score): 0.431
[43]
  glycan array binding signal (z-score): 0.074
[44]
  glycan array binding signal (z-score): 0.099
[45]
  glycan array binding signal (z-score): 0.434
[46]
  glycan array binding signal (z-score): -0.435
[47]
  glycan array binding signal (z-score): -0.116
[48]
  glycan array binding signal (z-score): 0.037
[49]
  glycan array binding signal (z-score): -0.336
[50]
  glycan array binding signal (z-score): -0.068
[51]
  glycan array binding signal (z-score): -0.281
[52]
  glycan array binding signal (z-score): -0.198
[53]
  glycan array binding signal (z-score): -0.244
[54]
  glycan array binding signal (z-score): -0.47
[55]
  glycan array binding signal (z-score): -0.384
[56]
  glycan array binding signal (z-score): -0.429
[57]
  glycan array binding signal (z-score): -0.265
[58]
  glycan array binding signal (z-score): -0.118
[59]
  glycan array binding signal (z-score): -0.46
[60]
  glycan array binding signal (z-score): -0.408
